# From PubChem BioAssay AID588342 (National Center for Advancing Translational Sciences (NCATS), 2011)
# Screen size: about 360,000 compounds; about 25,000 (6.9%) were called active. The inconclusive results got no clear call from the source; some entries with a clear call stand among them for comparison. Calls follow the shape of the dose curve; as a rule, active = well fitted inhibition curve with a large enough effect; inconclusive = small, poorly fitted or top-dose-only effect; inactive = flat fitted curve, though single readings scatter. Potencies beside an inconclusive call are fits to weak or partial responses and may not hold up.
# Biological target: Luciferin 4-monooxygenase (Photinus pyralis) (UniProt P08659)
# Sequence of UniProt P08659 (P08659 whole entry, looked up): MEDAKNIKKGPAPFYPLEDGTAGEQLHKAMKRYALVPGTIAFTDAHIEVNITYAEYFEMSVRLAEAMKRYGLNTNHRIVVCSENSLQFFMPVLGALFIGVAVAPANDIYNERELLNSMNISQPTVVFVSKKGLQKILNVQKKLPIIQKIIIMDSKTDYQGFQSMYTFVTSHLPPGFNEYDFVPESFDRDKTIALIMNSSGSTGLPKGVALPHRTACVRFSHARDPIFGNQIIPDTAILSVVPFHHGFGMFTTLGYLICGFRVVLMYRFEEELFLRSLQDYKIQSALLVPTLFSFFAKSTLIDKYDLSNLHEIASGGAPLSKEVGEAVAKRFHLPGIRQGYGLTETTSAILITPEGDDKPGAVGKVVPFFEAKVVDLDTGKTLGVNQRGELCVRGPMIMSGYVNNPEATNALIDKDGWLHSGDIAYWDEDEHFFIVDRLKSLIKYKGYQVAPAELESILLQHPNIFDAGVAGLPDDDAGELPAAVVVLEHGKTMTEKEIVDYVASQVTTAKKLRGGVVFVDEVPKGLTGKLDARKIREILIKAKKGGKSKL
# Assay: qHTS profiling assay for firefly luciferase inhibitor/activator using purifed enzyme and Km concentrations of substrates (counterscreen for miR-21 project); also: nearly all actives have a fitted effect of over 55% in size;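 as to activity change, negative = inhibition: plate controls were vehicle for no effect and reference inhibitor for full effect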
# Settings: purified FLuc, luminescence inhibition; series mostly up to 57.5 µM; activity change, negative = inhibition: at the top concentration
# Method in brief: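 Purified P. pyralis luciferase, 10 nM final, with Km-level 10 uM D-luciferin and 10 uM ATP in 50 mM Tris acetate pH 7.5, 10 mM Mg acetate, 0.01% Tween-20, 0.05% BSA; 6-point qHTS titration about 60 µM downward; luminescence read.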
# Potency is read from the fitted curve at half-maximal effect; tags tell the direction and shape of the fitted curve.
Structure (SMILES),Potency,"activity change, negative = inhibition"
COc1ccccc1/C=C/C(=O)NC(=S)NCC1CCCO1 (stereo not drawn),"inconclusive: 37.9 µM [inhibitor, partial curve, poor fit]",
CCOC(=O)Cc1cc(=O)[nH]c(Nc2nc3ccccc3o2)n1,"inconclusive: 37.9 µM [inhibitor, single point]",
CC1CCCC(C)N1C(=O)CCN1C(=O)C2C3C=CC(C3)C2C1=O (stereo not drawn),,inactive: 5.08%
O=C1N=c2ccccc2=C1c1c(O)n(-c2cccc(F)c2)[nH]c1=O,"inconclusive: 37.9 µM [inhibitor, single point]",
N#C/C(=C/c1ccc(O)c(O)c1)C(=O)NCc1ccc(Cl)cc1,"inconclusive: 23.9 µM [inhibitor, single point]",
CCOc1ccccc1Nc1nc(-c2cccc(Cl)c2)c2c(n1)-c1ccccc1OC2,active: 10.7 µM,
Cc1cc(NC(=O)CCC(=O)N(Cc2ccc(F)cc2)C(C(=O)NC2CCCC2)c2ccco2)no1 (stereo not drawn),,inactive: 1.46%
COc1cccc(CN2CC(C(=O)N(C)C3CCOCC3)CCC2=O)c1 (stereo not drawn),,inactive: 4.42%
CCCCCCSc1cccc(-c2nc3ccc(C)cn3c2NCc2ccccc2)c1,"inconclusive: 33.8 µM [inhibitor, partial curve, poor fit]",
COc1cccc(C(=O)c2sc(NC(C)C)nc2N)c1,,inactive: -13.3%
COc1n[nH]c2nncnc12,,inactive: -6.9%
CN(C)c1ccc(/C=C/C(=O)c2ccc(O)cc2)cc1[N+](=O)[O-],active: 12 µM,
CCOC(=O)CSc1nc2ccc(NC(=O)c3ccc(F)cc3)cc2s1,"inconclusive: 2.69 µM [inhibitor, partial curve, poor fit]",
COc1ccc(C(=O)Nc2ccc(Cl)cc2C(=O)NCc2ccco2)cc1OC,,inactive: -1.56%
CN(C)c1ccc(/C=C/C(=O)c2cccc(Br)c2)cc1,active: 3.01 µM,
COc1ccc(N/C=C\C(=O)c2ccc3c(c2)OCO3)cc1,active: 0.269 µM,
O=c1cc(Nc2ccc3c(c2)OCCO3)[nH]c(=O)n1C1CCCCC1,"inconclusive: 12 µM [inhibitor, partial curve, poor fit]",
O=C(c1ccc2c(c1)OCO2)C1CCCN(Cc2ccc(OC(F)F)cc2)C1 (stereo not drawn),,inactive: -0.279%
COc1cccc(/C(C)=N/NC(=O)c2ccc(N(C)C)cc2)c1,active: 19 µM,
O=C(Nc1ccc(Br)cn1)c1ccc2ccccc2c1,active: 1.9 µM,
COc1ccc(NC(=O)c2sc3nc4c(cc3c2N)CN(C(C)C)CC4)c(OC)c1,,inactive: -10%
Cc1cccc(NC(=O)c2sc(C)nc2C)c1,active: 23.9 µM,
COc1cc(-c2noc(CSc3nc(-c4ccccc4)cc(=O)[nH]3)n2)cc(OC)c1OC,"inconclusive: 9.53 µM [inhibitor, partial curve]",
CC/C(=N\NC(=O)c1ccc(N(C)C)cc1)c1ccccc1,"inconclusive: 26.9 µM [inhibitor, single point]",
COc1ccc(S(=O)(=O)c2c(Nc3ccc(C)cc3)sc(C(=O)c3ccc(C)cc3)c2N)cc1,,inactive: -0.422%
CC1CCCN(c2nc(NCc3ccco3)nc(N)c2[N+](=O)[O-])C1 (stereo not drawn),,inactive: -6.57%

Structure (SMILES),Potency,"activity change, negative = inhibition"
Cn1cnnc1SCC(=O)Nc1cc(C(=O)O)cc(C(=O)O)c1,,inactive: -2.71%
O=C(c1ccccc1)c1ccc2ccccc2n1,"inconclusive: 37.9 µM [inhibitor, single point]",
Oc1cccc(/C=N/N2CCCCC2)c1O,active: 9.53 µM,
CC(=O)c1sc(NC(=O)c2ccc(Cl)cc2)nc1C,"inconclusive: 1.9 µM [inhibitor, full curve]",
CCn1ncc(C(=O)Nc2cc(C)on2)c1C,"inconclusive: 23.9 µM [inhibitor, single point]",
CCN(CC)C(=O)c1sc2nc(N3CCOCC3)c3c(c2c1N)CCCC3,"inconclusive: 30.1 µM [inhibitor, partial curve, poor fit]",
CC1=NN(c2ccccc2)C(=O)/C1=C\N(O)c1ccccc1,"inconclusive: 21.3 µM [inhibitor, single point]",
Cc1cc2cc(C)c(NCCNC(=O)c3cccc(F)c3)nc2cc1C,"inconclusive: 26.9 µM [inhibitor, partial curve, poor fit]",
O=C(Nc1nnc(SCC(=O)N2CCCc3ccccc32)s1)c1cccc2ccccc12,"inconclusive: 23.9 µM [inhibitor, partial curve]",
Cn1ccc(NC(=O)Nc2cccc(C(F)(F)F)c2)n1,"inconclusive: 26.9 µM [inhibitor, partial curve, poor fit]",
CCSc1nnc(Nc2ccccc2)s1,"inconclusive: 26.9 µM [inhibitor, single point]",
NNC(=O)CN1CCCc2ccccc21,active: 12 µM,
Cc1ccc(NC(=O)CN2CCN(c3ccccn3)CC2)c(Cl)c1,"inconclusive: 23.9 µM [inhibitor, partial curve, poor fit]",
CC(C)Oc1cccc(-c2cc(C(=O)NN3CCOCC3)c3ccccc3n2)c1,active: 13.5 µM,
COc1ccc(OC)c(CNC(=O)C2CCN(S(=O)(=O)c3cn(C)cn3)CC2)c1,,inactive: 3%
Cc1ccc2nc(Nc3ncc4c(n3)CCCC4=O)nc(C)c2c1,,inactive: -0.839%
COC(=O)Cc1ccc2oc(-c3cccnc3)nc2c1,"inconclusive: 26.9 µM [inhibitor, single point]",
O=C(COc1ccc(Br)cc1Br)NNC(=O)c1cccs1,active: 1.9 µM,
CC(C)(C)N1C(=O)c2ccc(C(=O)Nc3nccs3)cc2C1=O,active: 3.38 µM,
Cc1ccc(S(=O)(=O)c2cn(Cc3ccccc3F)c3cc4c(cc3c2=O)OCO4)cc1,,inactive: 3.7%
COc1ccccc1NC(=O)CC(=O)c1ccccc1,"inconclusive: 26.9 µM [inhibitor, single point]",
COc1cccc(N2CCN(C(=O)c3cccc(NC(=O)c4nsc5ccccc45)c3)CC2)c1,active: 1.9 µM,
COc1cc(Cl)ccc1OCc1cc(C(=O)NCC(C)c2ccccc2)no1 (stereo not drawn),active: 21.3 µM,
COC(=O)/C(=C1/Oc2ccc(C)cc2S1)C(F)(F)F,"inconclusive: 7.57 µM [inhibitor, partial curve]",
COc1ccccc1C1CC(c2cccs2)=Nc2ccccc2S1 (stereo not drawn),"inconclusive: 26.9 µM [inhibitor, partial curve, poor fit]",
COc1cc(CN(C(=O)c2ccccc2[N+](=O)[O-])c2ccccn2)cc(OC)c1OC,,inactive: -1.9%

Structure (SMILES),Potency,"activity change, negative = inhibition"
Cn1cccc1C(=O)NCC1COc2ccccc2O1 (stereo not drawn),,inactive: 2.18%
Nc1nnc(SCc2ccc(Cl)cc2)s1,"inconclusive: 19 µM [inhibitor, partial curve, poor fit]",
O=C(CSCc1ccc(Cl)cc1)N1CCCCC1,active: 16.9 µM,
CCOc1ccc(C(=O)Nc2nnc(SCc3cc(=O)c4cc(C)ccc4[nH]3)s2)cc1,,inactive: -4.96%
CCc1nnc(NS(=O)(=O)c2ccc(NC(=O)COc3ccc4ccccc4c3)cc2)s1,"inconclusive: 23.9 µM [inhibitor, single point]",
CCC(=O)c1ccc(O)cc1,,inactive: 5.43%
CC1CCc2sc(C(=O)N=Nc3c(O)[nH]c4ccccc34)cc2C1 (stereo not drawn),"inconclusive: 8.49 µM [inhibitor, partial curve]",
O=C(NNC(=S)NC(=O)c1ccccc1[N+](=O)[O-])c1ccc(Cl)cc1Cl,"inconclusive: 37.9 µM [inhibitor, single point]",
CC1=CC2=NC(=O)/C(=C/c3coc4ccccc4c3=O)C(=N)N2O1,,inactive: -16.2%
S=C(N/N=C/c1ccc(Cl)cc1)N1CCOCC1,"inconclusive: 21.3 µM [inhibitor, partial curve]",
Cc1nn(-c2ccccc2)c(OC(=O)c2ccccc2F)c1S(=O)(=O)c1ccccc1,"inconclusive: 12 µM [inhibitor, partial curve]",
O=C(O)CC(NC(=O)C(c1ccccc1)c1ccccc1)c1ccc(F)cc1 (stereo not drawn),"inconclusive: 37.9 µM [inhibitor, partial curve, poor fit]",
CC(NC(=O)c1ccco1)C(=O)N1CCc2ccccc2C1 (stereo not drawn),,inactive: -16.8%
COc1ccc(-c2coc3c(C)c4oc(=O)c(CC(=O)O)c(C)c4cc23)cc1,"inconclusive: 37.9 µM [inhibitor, single point]",
Cc1cccn2c(Nc3ccccc3)c(-c3ccc(N4CCOCC4)cc3)nc12,"inconclusive: 12 µM [inhibitor, partial curve]",
CCN(CC)c1ccc(Nc2cc3n(c(=O)n2)CCc2cc(OC)c(OC)cc2-3)cc1,active: 23.9 µM,
CSc1ccccc1-c1nnc(-c2ccc(Cl)c(Cl)c2)o1,active: 7.57 µM,
Cc1oc(-c2ccccc2)cc1C(=O)Nc1ccc2ccccc2c1,"inconclusive: 9.53 µM [inhibitor, partial curve]",
O=C(N/N=C/c1ccc([N+](=O)[O-])cc1)c1ccc(NS(=O)(=O)c2cccs2)cc1,active: 21.3 µM,
Cc1noc(NS(=O)(=O)c2ccc(NC(=O)C(CC(C)C)N3C(=O)c4ccccc4C3=O)cc2)c1C (stereo not drawn),,inactive: 0.878%
Brc1ccc(N=Nc2ccc3ccccc3n2)cc1,active: 0.0213 µM,
OCCN1CCN(C(=S)Nc2cccc(C(F)(F)F)c2)CC1,,inactive: -1.23%
Cc1cc(=O)n2nc(N3CCC(C(=O)NCc4cccc(Cl)c4)CC3)sc2n1,,inactive: 3.38%
O=C(/C=C/c1ccccc1)NC(=S)NNC(=O)c1ccco1,"inconclusive: 23.9 µM [inhibitor, partial curve, poor fit]",
O=C(COC(=O)c1cc(S(=O)(=O)N2CCOCC2)ccc1F)NCc1ccco1,,inactive: 1.4%
O=C(CCl)Nc1c(C(=O)Nc2ccc3c(c2)OCCO3)oc2ccccc12,"inconclusive: 26.9 µM [inhibitor, single point]",
